Values marked as one replicate rest on one cluster of the flow cell; about a third of the high ones do not repeat.
Tested on: ATP
Assay: switch fluorescence ratio, 500 uM ATP over buffer (Cy3 cluster intensity, sum of 5 cycles each) (fold (ratio)); higher = stronger signal-on switching upon ATP binding; sequences stand for … in TCGTCGGCAGCGTCAGATGTGTATAAGAGACAGTTTTTTTTTTTTTTTTTTTTTTTTT…TC
Details: aptamer strand: ATP DNA aptamer (quencher-CACCTGGGGGAGTATTGCGGAGGAAGG + anchor), 100 nM annealed; ATP concentration: 500 uM; one replicate
Summary of the method: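 After annealing to 100 nM quencher-labelled ATP aptamer, Cy3-labelled switching-strand clusters on a modified Illumina MiSeq flow-cell were imaged in selection buffer. A second image followed after 15 min with 500 uM ATP at 22 °C, and five such buffer/ATP cycles were done, each separated by NaOH stripping and re-annealing. The fluorescence ratio, averaged per switch-domain sequence, is summed target-cycle over summed buffer-cycle Cy3 intensity per cluster, with clusters outside 100-1000 RFU excluded.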
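Note: ATP exposure 15 min at 22 °C before imaging.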

| Sequence | switch fluorescence ratio |
| --- | --- |
| CAGGTGACCA | 1.11 |
| GTTTAACAAC | 0.993 |
| TTAAGTCCAG | 0.994 |
| TACGCGTGAT | 0.957 |
| CGACCTGCTC | 1.41 |
| ATGCTAAACT | 0.985 |
| TTGAGTACC | 0.981 |
| TTAAATCAAT | 0.986 |
| CCAGGAGTTT | 1.05 |
| GACGACAGGA | 1.08 |
| CCTTGCTTTT | 3.24 |
| CAACCCTGAG | 1.05 |
| CCTGGAAGGC | 1.12 |
| AGGTTGAATG | 0.983 |
| GTTTCAAATT | 0.992 |
| GAGCCCCATG | 1.13 |
| TCTCGTTGGT | 0.971 |
| GGGCGCAGGC | 0.988 |
| CGCAGCTGCC | 0.996 |
| GTGAGCTATC | 1.06 |
| GGGCCGGTTC | 1.01 |
| GAGTGAATGT | 1.01 |
| ATAAACATGG | 1.02 |

| Sequence | switch fluorescence ratio |
| --- | --- |
| TTCTATTGCT | 1.01 |
| GCTTGAATGA | 1.03 |
| TTATTCATCC | 1 |
| CTGTGATAAA | 0.984 |
| CTCCTTACTA | 1.13 |
| TCGGCCCTCG | 0.973 |
| CTTCTATGCG | 0.959 |
| TCAATTGGGC | 0.939 |
| TTACTGTTAT | 1.09 |
| CGGCGAGAT | 1.05 |
| TCTAGGCGTA | 0.98 |
| ACCTGGAAGG | 0.961 |
| ACGCAAATTG | 1.36 |
| CCGTCTTATA | 1.06 |
| CAGCGAAGGG | 1 |
| CAAGTATTCG | 1.02 |
| CACTAGCAGA | 1.03 |
| AGCCCATGG | 1.04 |
| ATCGCAATCA | 2.5 |
| ATCATGCAGT | 0.953 |
| GGCTATTACG | 1.03 |
| CACAGAGTAC | 1.03 |
| ACTACACGTT | 1.38 |

| Sequence | switch fluorescence ratio |
| --- | --- |
| CCCCCCTATG | 1.3 |
| TCGAGCACAG | 1.28 |
| CAGACCGGGA | 1.07 |
| AGATCAGCT | 0.992 |
| TACTAGCCGG | 0.976 |
| TTTGATTTC | 1.01 |
| TACTTTGGTA | 1.12 |
| TTCCGTTAGG | 0.989 |
| TTGGGGTCG | 1 |
| CGAAAGAACG | 1.04 |
| GTATGTCAGT | 1.02 |
| TCGCAAGCAG | 1.59 |
| GTATCTTCCT | 1.58 |
| AAAGTGTATG | 0.958 |
| CGCCTCATAT | 1.1 |
| TAGATCGGC | 1.02 |
| TGTTTTGCGC | 1 |
| AAACTTGGG | 0.987 |
| TGTGTTGAAG | 0.956 |
| GGTGGTGCAT | 0.998 |
| AACGGGCGAC | 1.04 |
| TTGACGCCGA | 0.989 |
| GCAGTGGTCG | 1.01 |

| Sequence | switch fluorescence ratio |
| --- | --- |
| TGTAATCAGG | 1.02 |
| GGGCATCAGA | 1.04 |
| CGACGTTGTG | 1.03 |
| TAAGGTCTGG | 0.996 |
| TCCGAGTCT | 1.01 |
| CGGCTTTTCA | 0.993 |
| CGACATGCAT | 1.2 |
| TCCTGCATT | 1.21 |
| AAAGTGGATT | 1 |
| TTTATAACGA | 1.02 |
| GCTTCGTAGG | 0.985 |
| GATTTGTTAT | 1 |
| GCGGTCAATG | 0.961 |
| TATAGGTACG | 1.08 |
| TCCCTATTTA | 1.01 |
| TCATTTAGTT | 1.01 |
| GGTTATTAGT | 1.01 |
| TTAAGGGACT | 0.991 |
| GTAATTCCTA | 1.04 |
| TATCCCAGTG | 2.58 |
| TGATCGATTT | 0.98 |
| ATTTTCGCAG | 1.33 |
| TTCATGTAGG | 1.01 |

| Sequence | switch fluorescence ratio |
| --- | --- |
| GTACCCCCGG | 1.09 |
| ACCTATTTTG | 1.07 |
| CGTTGGCACC | 1.03 |
| GCACAGAAGA | 0.987 |
| TCAACCAAAT | 0.997 |
| TAATATTTGC | 1.04 |
| GGTATACCGT | 0.979 |
| ACATTACGTC | 1.29 |
| TAACGTAATT | 1.22 |
| GGTTTCCTCT | 1.04 |
| CGGCTACCTG | 0.978 |
| TTTGTACGT | 0.998 |
| TCTCTATTGT | 0.996 |
| GTCATCGGGA | 0.995 |
| TACATGAAAG | 1.01 |
| GAAAGCTACG | 1.02 |
| TTCTGTGATA | 1.01 |
| GGTGTTC | 0.98 |
| CATGAGGTTT | 0.995 |
| GGCTGCGGT | 0.978 |
| CACCTTTATA | 1.02 |
| AGCGGAAGCC | 0.985 |
| AGCTGGAG | 0.991 |

| Sequence | switch fluorescence ratio |
| --- | --- |
| ATTAACGTTA | 1.05 |
| GCCGTAAAAC | 3.11 |
| GCAGTTACCG | 1 |
| GACCTTGGCC | 1.06 |
| GTCGGCGGAG | 1.02 |
| TAACTGTGAA | 0.979 |
| TCCGGCATAG | 2.16 |
| TGTGTAGCCG | 0.982 |
| TGGCTTGAAA | 1.07 |
| ATCCACCTTT | 1.1 |
| ATTTTACTAG | 1.02 |
| TACGTGGGGA | 1.01 |
| ATACTCCAAT | 1.13 |
| GGTCCCCTGC | 1.01 |
| CGGATAGAAG | 0.994 |
| TCGTACGGAC | 1.23 |
| GTAAAGTT | 0.97 |
| ATGCTTTTTG | 0.974 |
| AGGCTTAACA | 0.993 |
| TCGTCGATCA | 0.995 |
| CATGGTAGGG | 1.01 |
| TCGCTTTTCT | 0.998 |
| AAGACAGAAA | 1.02 |

| Sequence | switch fluorescence ratio |
| --- | --- |
| GAATAATGTG | 0.967 |
| TGGAGGAGTT | 1.05 |
| TTGGCCTGG | 0.965 |
| CTAACGTTCA | 1.05 |
| CACATTACAC | 1.33 |
| CACCCTTAAA | 1.03 |
| TTATTGCCGA | 1.03 |
| CAATGGCTAC | 1.22 |
| ACAGCCACTC | 1.19 |
| AATAGATTTA | 0.977 |
| CGCGAAACG | 0.994 |
| CTTATTCCAA | 1.01 |
| TTATCAGTTC | 0.963 |
| CATAAGGATG | 0.929 |
| TGTATATACG | 1.04 |
| GGTTTGTCCC | 1.04 |
| AGAATTACGT | 1.04 |
| ACGTCTGCTA | 1.08 |
| GAGTCAGCGA | 1.51 |

— the supplement of paper PMC10126150
